Some entries of the source have several records that differ or are many. They are shown here; other results are not. An entry can have further records. Some protein pairs were linked at several places, one record each.
Columns and labels:
Test in all cases: cross-linking mass spectrometry
Conditions in all cases: DSS, purified complex
RTCB = RTCB (UniProt Q9Y3I0)
C2orf49 = C2orf49 (UniProt Q9BVC5)
RTRAF = RTRAF (UniProt Q9Y224)

Chain of C2orf49, Q9BVC5 (Q9BVC5 whole entry): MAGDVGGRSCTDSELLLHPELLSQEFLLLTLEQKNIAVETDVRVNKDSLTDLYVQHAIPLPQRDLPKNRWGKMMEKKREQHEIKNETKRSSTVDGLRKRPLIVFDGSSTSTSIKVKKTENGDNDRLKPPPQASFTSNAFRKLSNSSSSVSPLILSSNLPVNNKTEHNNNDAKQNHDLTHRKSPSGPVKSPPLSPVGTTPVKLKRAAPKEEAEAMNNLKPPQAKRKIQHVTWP
Chain of C2orf49 (Q9BVC5 whole entry): as above
Chain of DDX1 (Q92499 whole entry): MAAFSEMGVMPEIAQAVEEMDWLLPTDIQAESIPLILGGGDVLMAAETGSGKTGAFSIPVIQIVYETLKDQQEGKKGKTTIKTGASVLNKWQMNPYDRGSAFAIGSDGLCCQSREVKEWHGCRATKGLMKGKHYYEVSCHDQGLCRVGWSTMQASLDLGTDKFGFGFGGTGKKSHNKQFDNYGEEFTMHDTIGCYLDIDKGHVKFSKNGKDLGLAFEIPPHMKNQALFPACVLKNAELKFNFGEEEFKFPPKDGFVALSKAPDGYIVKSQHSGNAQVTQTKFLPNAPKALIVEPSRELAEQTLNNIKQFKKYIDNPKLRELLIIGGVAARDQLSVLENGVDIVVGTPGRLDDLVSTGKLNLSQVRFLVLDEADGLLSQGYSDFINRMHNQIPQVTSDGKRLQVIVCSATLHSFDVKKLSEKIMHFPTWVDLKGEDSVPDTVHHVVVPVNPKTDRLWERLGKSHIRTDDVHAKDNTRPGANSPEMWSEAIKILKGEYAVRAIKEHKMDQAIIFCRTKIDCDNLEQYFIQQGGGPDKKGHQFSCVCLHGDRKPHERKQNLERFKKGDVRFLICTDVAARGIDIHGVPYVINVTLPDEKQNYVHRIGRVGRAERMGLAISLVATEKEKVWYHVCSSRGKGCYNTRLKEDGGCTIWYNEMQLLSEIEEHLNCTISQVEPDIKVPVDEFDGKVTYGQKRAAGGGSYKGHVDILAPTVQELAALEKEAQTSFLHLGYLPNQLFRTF
Chain of FAM98B (Q52LJ0 whole entry): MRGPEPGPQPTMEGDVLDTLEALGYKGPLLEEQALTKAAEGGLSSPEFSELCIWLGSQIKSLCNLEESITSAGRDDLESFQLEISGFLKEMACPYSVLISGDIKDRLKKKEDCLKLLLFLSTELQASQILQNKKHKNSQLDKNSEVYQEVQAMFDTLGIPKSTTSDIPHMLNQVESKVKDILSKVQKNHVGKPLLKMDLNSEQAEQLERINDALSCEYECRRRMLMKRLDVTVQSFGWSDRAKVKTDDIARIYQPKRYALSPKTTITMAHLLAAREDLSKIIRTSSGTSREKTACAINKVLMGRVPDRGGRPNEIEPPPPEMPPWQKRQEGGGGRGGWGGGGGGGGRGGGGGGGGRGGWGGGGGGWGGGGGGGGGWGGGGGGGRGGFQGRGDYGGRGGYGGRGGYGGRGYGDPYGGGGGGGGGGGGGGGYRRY
Chain of RTRAF, Q9Y224 (Q9Y224 whole entry): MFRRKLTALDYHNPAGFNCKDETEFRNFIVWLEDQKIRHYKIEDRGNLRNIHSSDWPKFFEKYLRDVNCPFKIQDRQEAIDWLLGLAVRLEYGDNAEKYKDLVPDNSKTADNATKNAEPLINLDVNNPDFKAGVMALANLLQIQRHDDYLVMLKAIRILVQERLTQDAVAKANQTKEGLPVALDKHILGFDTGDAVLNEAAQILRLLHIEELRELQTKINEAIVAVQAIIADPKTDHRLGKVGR
Chain of RTRAF (Q9Y224 whole entry): as above
Chain of UniProt Q9Y3I0 (Q9Y3I0 whole entry): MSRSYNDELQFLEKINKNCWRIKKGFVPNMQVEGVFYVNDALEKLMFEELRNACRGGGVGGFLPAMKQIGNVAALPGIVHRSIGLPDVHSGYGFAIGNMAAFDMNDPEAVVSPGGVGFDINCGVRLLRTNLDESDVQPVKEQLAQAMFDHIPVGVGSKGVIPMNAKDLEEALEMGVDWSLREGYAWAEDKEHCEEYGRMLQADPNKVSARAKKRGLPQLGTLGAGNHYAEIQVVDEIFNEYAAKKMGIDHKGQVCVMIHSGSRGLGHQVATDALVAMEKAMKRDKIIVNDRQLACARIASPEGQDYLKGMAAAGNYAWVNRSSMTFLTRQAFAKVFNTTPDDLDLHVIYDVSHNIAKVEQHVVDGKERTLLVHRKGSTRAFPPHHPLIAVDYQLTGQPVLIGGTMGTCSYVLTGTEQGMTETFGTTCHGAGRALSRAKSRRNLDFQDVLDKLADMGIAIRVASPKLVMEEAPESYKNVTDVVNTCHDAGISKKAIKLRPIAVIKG

## RTRAF, Q9Y224
RTCB
  cross-linked residues: K41 - K366 and K171 - K245 and K176 - K244 and K176 - K245 and K185 - K492 and K234 - K158

## FAM98B, Q52LJ0
C2orf49
  cross-linked residues: K245 - K84 and K245 - K98 and K245 - K127 and K256 - K46 and K256 - K98 and K256 - K127
RTRAF
  cross-linked residues: K26 - K100 and K110 - K72 and K115 - K72 and K136 - K98 and K136 - K100 and K142 - K100 and K142 - K108 and K177 - K171 and K179 - K154 and K184 - K154 and K184 - K171 and K187 - K171 and K245 - K41 and K245 - K234 and K256 - K20 and K256 - K98 and K256 - K100 and K256 - K154 and K256 - K171 and K256 - K234 and K263 - K154 and K280 - K154 and K280 - K176

## DDX1, Q92499
C2orf49
  cross-linked residues: K358 - K127 and K472 - K98 and K472 - K127 and K472 - K225
RTCB
  cross-linked residues: K117 - K285 and K117 - K366 and K117 - K465 and K317 - K465 and K358 - K465 and K399 - K285 and K399 - K465 and K472 - K206 and K472 - K285 and K472 - K366 and K505 - K285 and K516 - K285 and K536 - K285 and K623 - K465 and K687 - K206 and K693 - K206 and K693 - K285 and K693 - K366 and K702 - K206 and K702 - K308
RTRAF
  cross-linked residues: K117 - K20 and K472 - K20 and K636 - K20 and K693 - K20 and K693 - K62

## C2orf49, Q9BVC5
RTCB
  cross-linked residues: K127 - K366 and K127 - K465 and K225 - K366
RTRAF
  cross-linked residues: K46 - K20 and K72 - K98 and K84 - K41 and K84 - K58 and K84 - K62 and K88 - K62 and K98 - K41 and K98 - K62 and K117 - K20 and K127 - K20 and K127 - K41 and K127 - K62 and K127 - K72 and K127 - K234

Reference: article PMC8668186, “Molecular architecture of the human tRNA ligase complex” (eLife, 2021)
